In the supplement of paper PMC4604168 (melanoma cell lines):
Some of the results follow. Many values rest on one well or one pass, so single values are uncertain.

Columns and labels:
Experiment in all cases: cell count relative to DMSO control; melanoma cells; higher = more viable cells
Conditions in all cases: library dose: low library concentration; 72 h
[1] = tested on: MZ2-MEL
[2] = tested on: MeWo
[3] = tested on: RPMI7951
[4] = tested on: RVH-421
[5] = tested on: SkMel28
[6] = tested on: SkMel2
[7] = tested on: SkMel30
[8] = tested on: SkMel5
[9] = tested on: UACC257
[10] = tested on: UACC62
[11] = tested on: WM115
[12] = tested on: WM1716
[13] = tested on: WM1745
[14] = tested on: WM3526
[15] = tested on: WM3619
[16] = tested on: WM451Lu
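Also: cell number obtained by counting DAPI-stained nuclei in high-throughput microscope images with image analysis software, screen run in 1,536-well plates.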

SMILES | cell count [1] [%] | cell count [2] [%] | cell count [3] [%] | cell count [4] [%] | cell count [5] [%] | cell count [6] [%] | cell count [7] [%] | cell count [8] [%] | cell count [9] [%] | cell count [10] [%] | cell count [11] [%] | cell count [12] [%] | cell count [13] [%] | cell count [14] [%] | cell count [15] [%] | cell count [16] [%]
Cc1ccc(NC(=O)c2cccc(N(C)C)c2)cc1NC(=O)c1ccc(O)cc1 + Cc1cc(N2CCOCC2)cc2[nH]c(-c3c(NC[C@@H](O)c4cccc(Cl)c4)cc[nH]c3=O)nc12 [BMS536924] (first compound 2 µM, partner dose 0.2 µM) | 88.2 | 106 | 95.5 | 90.4 | 88.6 | 107 | 76.6 | 94.7 | 104 | 113 | 97.2 | 104 | 87.7 | 124 | 76.9 | 83.7
Cc1ccc(NC(=O)c2cccc(N(C)C)c2)cc1NC(=O)c1ccc(O)cc1 + O=C(Nc1cccc(Cl)c1)Nc1ncc(CCNc2ncnc3ccsc23)s1 [SNS314] (first compound 2 µM, partner dose 0.0008 µM) | 76.5 | 94.6 | 71.1 | 103 | 106 | 111 | 94.2 | 95.5 | 81.8 | 97.7 | 64.4 | 112 | 96.9 | 104 | 108 | 78.8
CC(C)(C)c1cnc(CSc2cnc(NC(=O)C3CCNCC3)s2)o1 + CN(C)S(=O)(=O)c1ccc2c(c1)/C(=C/c1cc3c([nH]1)CCCC3)C(=O)N2 [SU6656] (first compound 0.01 µM, partner dose 0.4 µM) | 101 | 94 | 104 | 61.7 | 95.4 | 95.9 | 115 | 89.7 | 77.7 | 93.3 | 74.2 | 91.7 | 94.2 | 106 | 85.3 | 105
NC(=O)c1ccc(N(C(N)=O)c2c(F)cccc2F)nc1-c1ccc(F)cc1F + c1cc(-c2cnn3cc(-c4ccc(OCCN5CCCCC5)cc4)cnc23)ccn1 [Dorsomorphin] (first compound 0.4 µM, partner dose 0.4 µM) | 93.4 | 90.6 | 89.3 | 90.9 | 93.9 | 115 | 103 | 114 | 97.1 | 117 | 117 | 103 | 86.9 | 97.1 | 92.9 | 109
Cc1ccc(NC(=O)c2cccc(N(C)C)c2)cc1NC(=O)c1ccc(O)cc1 + NCC(=O)Nc1ccc(-n2nc(C(F)(F)F)cc2-c2ccc3c(ccc4ccccc43)c2)cc1 [OSU03012] (first compound 2 µM, partner dose 1 µM) | 63.2 | 47.9 | 78.7 | 80.7 | 80.4 | 71.9 | 40 | 95 | 88.8 | 76.4 | 84 | 102 | 75.7 | 59.6 | 95.3 | 70.9
CCCCCCCCc1ccc(CCC(N)(CO)CO)cc1 [fingolimod] + Cn1cc(/C=C2\C(=O)Nc3cccnc32)c2ccccc21 [GW441756] (first compound 2 µM, partner dose 0.4 µM) | 96.2 | 108 | 88.9 | 120 | 92.6 | 97.1 | 104 | 83.3 | 83 | 84.1 | 91.6 | 96.4 | 72.8 | 88.3 | 98.8 | 111
NC(=O)c1ccc(N(C(N)=O)c2c(F)cccc2F)nc1-c1ccc(F)cc1F + CN(NC(=O)CC(=O)NN(C)C(=S)c1ccccc1)C(=S)c1ccccc1 [STA4783] (first compound 0.4 µM, partner dose 0.006 µM) | 108 | 79.8 | 104 | 87.6 | 96 | 106 | 98.9 | 89.6 | 88.5 | 87.5 | 89.5 | 95.4 | 36.1 | 95.5 | 69.8 | 102
NC(=O)c1ccc(N(C(N)=O)c2c(F)cccc2F)nc1-c1ccc(F)cc1F + NCC(=O)Nc1ccc(-n2nc(C(F)(F)F)cc2-c2ccc3c(ccc4ccccc43)c2)cc1 [OSU03012] (first compound 0.4 µM, partner dose 1 µM) | 100 | 60.3 | 95.5 | 85.8 | 87.6 | 88.8 | 50.4 | 95.1 | 115 | 90.6 | 84.3 | 110 | 88.9 | 62.5 | 93.9 | 93.8
NC(=O)c1ccc(N(C(N)=O)c2c(F)cccc2F)nc1-c1ccc(F)cc1F + O=C(CCCCCCC(=O)Nc1ccccc1)NO [vorinostat] (first compound 0.4 µM, partner dose 0.08 µM) | 105 | 85.1 | 89.2 | 115 | 66 | 92.9 | 89.5 | 104 | 97 | 95.3 | 112 | 96.9 | 111 | 93.4 | 114 | 54.7
NC(=O)c1ccc(N(C(N)=O)c2c(F)cccc2F)nc1-c1ccc(F)cc1F + COc1ccc(COc2ccc(Cc3cnc(N)nc3N)cc2OC)cc1 [GW2580] (first compound 0.4 µM, partner dose 1 µM) | 99.8 | 74.6 | 103 | 85.3 | 83.8 | 106 | 91.4 | 93.2 | 64.2 | 80.7 | 82.6 | 85.1 | 92.1 | 86.6 | 111 | 99.5
CCCCCCCCc1ccc(CCC(N)(CO)CO)cc1 [fingolimod] + COc1cc(Nc2ncc(F)c(Nc3ccc4c(n3)NC(=O)C(C)(C)O4)n2)cc(OC)c1OC [Tamatinib] (first compound 2 µM, partner dose 0.4 µM) | 93.3 | 87 | 85.8 | 92.3 | 74.9 | 93.7 | 89.1 | 71.2 | 75.4 | 69.7 | 94.7 | 90.9 | 70.1 | 61 | 99.4 | 85
NC(=O)c1ccc(N(C(N)=O)c2c(F)cccc2F)nc1-c1ccc(F)cc1F + Cc1cc([N+](=O)[O-])ccc1NS(=O)(=O)c1cc(Cl)ccc1Cl [FH535] (first compound 0.4 µM, partner dose 1 µM) | 90 | 96.8 | 121 | 90.5 | 71.7 | 101 | 82.7 | 92.6 | 86.5 | 99.9 | 94.4 | 81.3 | 89.6 | 81.8 | 123 | 97.5
CCCCCCCCc1ccc(CCC(N)(CO)CO)cc1 [fingolimod] + Cc1cc(N2CCOCC2)cc2[nH]c(-c3c(NC[C@@H](O)c4cccc(Cl)c4)cc[nH]c3=O)nc12 [BMS536924] (first compound 2 µM, partner dose 0.2 µM) | 98.2 | 90.7 | 106 | 111 | 85.1 | 80.3 | 91.9 | 83.2 | 83.4 | 85.9 | 92.6 | 92.9 | 64.6 | 77.7 | 79.1 | 101
NC(=O)c1ccc(N(C(N)=O)c2c(F)cccc2F)nc1-c1ccc(F)cc1F + CN(C)S(=O)(=O)c1ccc2c(c1)/C(=C/c1cc3c([nH]1)CCCC3)C(=O)N2 [SU6656] (first compound 0.4 µM, partner dose 0.4 µM) | 98.1 | 83.4 | 82.4 | 102 | 86.2 | 95.1 | 105 | 80.4 | 87.9 | 86 | 73.6 | 116 | 95.2 | 91.3 | 104 | 89.3
NC(=O)c1ccc(N(C(N)=O)c2c(F)cccc2F)nc1-c1ccc(F)cc1F + O=C(O)C(=O)Nc1sc2c(c1C(=O)O)CCNC2 [TCS401] (first compound 0.4 µM, partner dose 1.66667 µM) | 111 | 105 | 95.1 | 102 | 83.8 | 96.7 | 82.7 | 109 | 94.4 | 104 | 101 | 96.5 | 84.8 | 105 | 98.7 | 98
CC(C)(C)c1cnc(CSc2cnc(NC(=O)C3CCNCC3)s2)o1 + Cn1cncc1[C@@](N)(c1ccc(Cl)cc1)c1ccc2c(c1)c(-c1cccc(Cl)c1)cc(=O)n2C [tipifarnib] (first compound 0.01 µM, partner dose 0.01 µM) | 93.5 | 84.5 | 62.4 | 80.3 | 83.3 | 94.6 | 88 | 103 | 69.4 | 61.4 | 88.5 | 73 | 104 | 85.7 | 82.1 | 103
Cc1ccc(NC(=O)c2cccc(N(C)C)c2)cc1NC(=O)c1ccc(O)cc1 + CO[C@@H]1[C@H](N(C)C(=O)c2ccccc2)C[C@H]2O[C@]1(C)n1c3ccccc3c3c4c(c5c6ccccc6n2c5c31)C(=O)NC4 [Midostaurin] (first compound 2 µM, partner dose 0.08 µM) | 71.7 | 78.6 | 82.7 | 87.5 | 105 | 89.1 | 92.4 | 81.7 | 68.5 | 82.8 | 80.6 | 70.6 | 87.1 | 109 | 70.6 | 89
NC(=O)c1ccc(N(C(N)=O)c2c(F)cccc2F)nc1-c1ccc(F)cc1F + Cc1ccc(NC(=O)c2cccc(N(C)C)c2)cc1NC(=O)c1ccc(O)cc1 [ZM336372] (first compound 0.4 µM, partner dose 2 µM) | 77.3 | 94.5 | 86.7 | 103 | 74.6 | 102 | 87 | 100 | 76 | 85 | 98.5 | 93.5 | 84.5 | 77.7 | 83.3 | 100
CCCCCCCCc1ccc(CCC(N)(CO)CO)cc1 [fingolimod] + COc1ccc2c(c1)CCC1C2CCC2(C)C(NCCCCCCN3C(=O)C=CC3=O)CCC12 [U73122] (first compound 2 µM, partner dose 0.4 µM) | 98.7 | 93.7 | 70.1 | 66.4 | 94.9 | 93.8 | 83.6 | 85.6 | 102 | 86.5 | 94.4 | 76.6 | 82.8 | 86.8 | 110 | 81.2
